According to the supplement of paper PMC4967469:
The IC50 comes from the fitted curve, where viability falls to half of the control; a fit beyond the top or the lowest dose is shown as a bound at that dose. AUC, from the same fit, is the share of area under the viability curve across the 256-fold dose range; the more sensitive the line, the further below 1. For some of these results: Any top dose called inferred was calculated from the reported fits. For some of these results: Where an entry number is given, a second screen of the drug exists; the two often differ.

Key:
Assay in all cases: Viability of human cancer cell lines after 72 h of drug (GDSC screen)
Tretinoin = compound: CC1=C(/C=C/C(C)=C/C=C/C(C)=C/C(=O)O)C(C)(C)CCC1 [Tretinoin]; conditions: top dose 10 µM; top dose inferred
Experimental: (§1)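 Human cancer cell lines in 384-well plates, medium with 10% serum, drug for 72 h over a 256-fold dose range (nine 2-fold or five 4-fold steps up to the top dose). Adherent lines were fixed and stained with the nucleic acid dye Syto60, suspension lines read with resazurin; signal relative to control wells, capped at 0 and 100%. One two-parameter sigmoid per drug and line, fitted in a mixed model over all curves with the slope shared within a line.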

GSK690693 = compound: CCn1c(-c2nonc2N)nc2c(C#CC(C)(C)O)ncc(OC[C@H]3CCCNC3)c21 [GSK690693]; conditions: top dose 10.24 µM; top dose inferred
Experimental: as §1

UNC0638 = compound: COc1cc2c(NC3CCN(C(C)C)CC3)nc(C3CCCCC3)nc2cc1OCCCN1CCCC1 [UNC0638]
Experimental: as §1

WH-4-023 = compound: COc1ccc(N(C(=O)Oc2c(C)cccc2C)c2ccnc(Nc3ccc(N4CCN(C)CC4)cc3)n2)c(OC)c1 [WH-4-023]; conditions: top dose 5.12 µM; top dose inferred
Experimental: as §1

SB-505124 = compound: Cc1cccc(-c2[nH]c(C(C)(C)C)nc2-c2ccc3c(c2)OCO3)n1 [SB-505124]; conditions: top dose 10 µM; top dose inferred
Experimental: as §1

BX-795 = compound: O=C(NCCCNc1nc(Nc2cccc(NC(=O)N3CCCC3)c2)ncc1I)c1cccs1 [BX-795]; conditions: top dose 5 µM; top dose inferred
Experimental: as §1

PI-103 = compound: Oc1cccc(-c2nc(N3CCOCC3)c3oc4ncccc4c3n2)c1 [PI-103]; conditions: top dose 10.24 µM
Experimental: as §1

[1] = top dose 20 µM, screen: GDSC drug entry 1236, top dose inferred
[2] = top dose 40 µM, screen: GDSC drug entry 245

Row | Cell Line | AUC (Tretinoin) | IC50 (Tretinoin) | AUC (GSK690693) | IC50 (GSK690693) | AUC (UNC0638; [1]) | IC50 (UNC0638; [1]) | AUC (UNC0638; [2]) | IC50 (UNC0638; [2]) | AUC (WH-4-023) | IC50 (WH-4-023) | AUC (SB-505124) | IC50 (SB-505124) | AUC (BX-795) | IC50 (BX-795) | AUC (PI-103) | IC50 (PI-103)
1 | NOMO-1 (acute myeloid leukaemia, suspension) | 0.225 | 0.087 µM | 0.957 | > 10.2 µM | 0.737 | 6.59 µM | 0.625 | 5.8 µM | 0.982 | > 5.12 µM | 0.94 | > 10 µM | 0.762 | 2.02 µM | 0.34 | 216 nM
2 | NOS-1 (osteosarcoma, adherent) | 0.838 | 9.13 µM | 0.638 | 1.68 µM | 0.804 | 12.9 µM | 0.609 | 5.36 µM | 0.576 | 0.543 µM | 0.962 | > 10 µM | 0.839 | 4.59 µM | 0.409 | 341 nM
3 | NU-DUL-1 (B-cell lymphoma, suspension) | 0.877 | 6.76 µM | 0.105 | 0.0505 µM | 0.848 | 10.7 µM | 0.551 | 3.34 µM | 0.544 | 0.411 µM | 0.992 | > 10 µM | 0.79 | 1.76 µM | 0.041 | < 40 nM
4 | OCI-AML2 (acute myeloid leukaemia, suspension) | 0.933 | 9.51 µM | 0.994 | > 10.2 µM | 0.804 | 7.15 µM | 0.742 | 9.85 µM | 0.995 | > 5.12 µM | 0.994 | > 10 µM | 0.721 | 1.09 µM | 0.775 | 3070 nM
5 | OCI-AML3 (acute myeloid leukaemia, suspension) | 0.776 | 3.43 µM | 0.94 | > 10.2 µM | 0.739 | 5.32 µM | 0.699 | 8.25 µM | 0.99 | > 5.12 µM | 0.99 | > 10 µM | 0.939 | > 5 µM | 0.264 | 153 nM
6 | OCI-AML5 (acute myeloid leukaemia, suspension) | 0.298 | 0.179 µM | 0.875 | 8.57 µM | 0.866 | 15.4 µM | 0.596 | 4.48 µM | 0.987 | > 5.12 µM | 0.986 | > 10 µM | 0.822 | 2.59 µM | 0.183 | 80.6 nM
7 | OCI-LY-19 (B-cell lymphoma, suspension) | 0.964 | > 10 µM | 0.705 | 2.3 µM | 0.874 | 16.9 µM | 0.609 | 4.85 µM | 0.969 | > 5.12 µM | 0.962 | > 10 µM | 0.861 | 3.71 µM | 0.102 | < 40 nM
8 | OCI-M1 (acute myeloid leukaemia, suspension) | 0.966 | > 10 µM | 0.788 | 3.38 µM | 0.995 | > 20 µM | 0.622 | 4.96 µM | 0.994 | > 5.12 µM | 0.993 | > 10 µM | 0.769 | 1.47 µM | 0.111 | 59.3 nM
9 | OCUB-M (breast, adherent) | 0.946 | > 10 µM | 0.198 | 0.096 µM | 0.832 | 10.5 µM | 0.773 | 13.5 µM | 0.941 | > 5.12 µM | 0.983 | > 10 µM | 0.919 | > 5 µM | 0.401 | 357 nM
10 | OMC-1 (cervix, adherent) | 0.986 | > 10 µM | 0.921 | > 10.2 µM | 0.986 | > 20 µM | 0.864 | 37.6 µM | 0.986 | > 5.12 µM | 0.98 | > 10 µM | 0.956 | > 5 µM | 0.596 | 1190 nM
11 | ONS-76 (medulloblastoma, adherent) | 0.982 | > 10 µM | 0.881 | > 10.2 µM | 0.814 | 11.9 µM | 0.712 | 10.5 µM | 0.863 | 5.02 µM | 0.971 | > 10 µM | 0.84 | 3.83 µM | 0.457 | 483 nM
12 | OPM-2 (myeloma, suspension) | 0.984 | > 10 µM | 0.987 | > 10.2 µM | 0.99 | > 20 µM | 0.628 | 5.23 µM | 0.905 | 4.63 µM | 0.992 | > 10 µM | 0.913 | 4.92 µM | 0.447 | 473 nM
13 | OS-RC-2 (kidney, adherent) | 0.939 | > 10 µM | 0.846 | > 10.2 µM | 0.822 | 19.4 µM | 0.767 | 21.9 µM | 0.414 | 0.167 µM | 0.945 | > 10 µM | 0.94 | > 5 µM | 0.887 | > 10200 nM
14 | OVCAR-4 (ovary, adherent) | 0.923 | > 10 µM | 0.971 | > 10.2 µM | 0.8 | 15.9 µM | 0.753 | 19.7 µM | 0.849 | > 5.12 µM | 0.95 | > 10 µM | 0.873 | > 5 µM | 0.66 | 2220 nM
15 | P30-OHK (lymphoblastic leukaemia, suspension) | 0.985 | > 10 µM | 0.503 | 0.653 µM | 0.624 | 2.58 µM | 0.444 | 1.81 µM | 0.96 | > 5.12 µM | 0.943 | > 10 µM | 0.666 | 0.83 µM | 0.113 | 50.4 nM
16 | P31-FUJ (acute myeloid leukaemia, suspension) | 0.995 | > 10 µM | 0.995 | > 10.2 µM | 0.86 | 10.7 µM | 0.798 | 14.1 µM | 0.994 | > 5.12 µM | 0.996 | > 10 µM | 0.966 | > 5 µM | 0.899 | 7460 nM
